Data taken from the supplement of paper PMC3334620.
In all, about 33,000 sequences were measured (“E-score (-0.5 to 0.5)”: median about -0.035, highest 2% from about 0.34 on). The list shows a part of the results.

target: T1, Mot3 (UniProt P54785); test: PBM E-score (8-mer binding enrichment) (E-score (-0.5 to 0.5)); higher = stronger / more preferred TF binding; most listed sequences are background and not binding sites; conditions: protein concentration: 200 nM; construct: GST-full length
T1 sequence: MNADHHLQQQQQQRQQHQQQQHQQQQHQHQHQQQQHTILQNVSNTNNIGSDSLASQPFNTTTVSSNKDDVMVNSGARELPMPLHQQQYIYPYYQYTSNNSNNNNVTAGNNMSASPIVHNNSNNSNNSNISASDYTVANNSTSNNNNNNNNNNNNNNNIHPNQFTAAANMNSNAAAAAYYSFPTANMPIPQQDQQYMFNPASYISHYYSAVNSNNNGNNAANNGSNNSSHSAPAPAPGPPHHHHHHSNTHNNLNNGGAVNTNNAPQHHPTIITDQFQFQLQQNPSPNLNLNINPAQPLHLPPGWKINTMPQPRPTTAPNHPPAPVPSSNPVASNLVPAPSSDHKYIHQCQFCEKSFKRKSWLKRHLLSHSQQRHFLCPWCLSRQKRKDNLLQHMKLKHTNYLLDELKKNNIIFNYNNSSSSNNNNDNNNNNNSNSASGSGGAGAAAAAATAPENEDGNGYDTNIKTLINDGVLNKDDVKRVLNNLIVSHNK
How it was run: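 Bound GST-tagged yeast transcription factors, applied at about 100-200 nM to double-stranded universal all-10-mer Agilent arrays, were detected with fluorescent anti-GST. Scans were normalised with masliner. A modified Wilcoxon-Mann-Whitney statistic, the E-score, was assigned to each ungapped eight-base word pooled with its reverse complement by the Universal PBM Analysis Suite.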

Sequence	PBM E-score
GCCTTACA	0.313
CGGATCAC	-0.00917
CGCATTGC	0.14
ATGCCGTA	-0.00063
CTGAACGA	-0.00312
AAGTACCG	-0.0686
CACGCCTG	0.0646
AGCACCAA	-0.152
AAGGATTG	-0.00028
ACATCGTG	0.193
CATCTCAC	-0.169
CTCTCTCA	-0.207
CTCCGGCC	-0.347
CACACACC	0.192
AACCGATC	-0.0679
GTCACATA	0.114
CCATCCGC	-0.164
AAGTTTGT	0.0928
ATGCAGGC	0.342
CGATCCAC	0.063
AAAGAGGC	0.0868
CAAGGCAG	0.0705
AGGCGTGA	-0.106
TGGCGTAA	0.0597
CCTCAAGG	0.0542

Sequence	PBM E-score
GAGCCGAA	-0.298
ACTGACAC	0.102
AAGGGAAT	0.0135
ATTCCACC	-0.0802
CTCCTCTC	-0.368
GCCCCCAC	-0.396
ATCGAAGA	-0.0794
CGTATCGC	-0.121
ACGAGGAC	-0.0954
CGCACTAA	-0.0222
CGTAATAA	0.288
TACAGCCA	-0.031
TTCCACAA	0.0161
AGCGCACA	-0.0577
GTAATCAC	0.185
CACCGAAC	-0.162
ACGTTAAT	0.264
CCCCGTTC	-0.109
AACCGTAC	0.0158
CGTAGTTA	0.163
ATCGGGAA	-0.133
CACGCGTG	0.275
TACCCAGA	-0.0882
CCGATCAG	-0.213
CCGCTCCA	-0.433

Sequence	PBM E-score
ACCCACCG	-0.207
GATAAGCC	-0.251
AGGCTCCA	0.335
CATATTAG	0.125
CCCGTAAA	0.0516
CACAATTA	0.102
ACACGGAC	0.269
GACCTTCC	-0.0987
GACCGGTC	-0.163
GTATGTAA	0.404
ATTACTAG	0.24
GAAGGGGA	-0.0537
GCGGCCAA	-0.165
ATTCCTGG	-0.21
GGCTTGTA	0.236
ACATGGGA	0.225
AGAAACAC	0.194
CCCGCTAC	-0.0311
ACTTACAT	0.311
CCTCTGTC	-0.11
CACGTAAA	0.339
AAAAGGAT	0.157
GACGTCAC	-0.0748
ACCATAAC	-0.0601
CGTTTCTC	-0.161

Sequence	PBM E-score
GCTGTCCC	-0.207
CGCCCCAA	-0.108
GAGTTCCA	-0.142
AGCGTGCC	0.343
ACTGGCTA	-0.072
CTCAGTAC	-0.0513
AGGACCAA	0.0511
AACTCCAA	0.0574
CCACCTAC	-0.153
CATAAAAG	0.089
CAACAAGA	0.123
ACATCGAA	-0.011
AGATAGGA	-0.164
AGGAGTAG	-0.152
ACAGGGGT	0.0837
AGCAGCAA	-0.155
GGGCGGGA	-0.206
AGCGTTTG	-0.298
CGGAGTGC	-0.218
CCGTCCAA	-0.272
ACCAACAC	0.204
CGAGTACA	0.166
AGGATCGC	-0.0405
ACGACCGT	-0.178
CTAAGAAA	0.08

Sequence	PBM E-score
AGCTGCAC	-0.0112
GACTCCAC	-0.34
ACTACCCT	-0.181
ACCCTTAA	-0.0329
ACTCTTTG	-0.11
TCGGGCCA	-0.203
CCAACCAC	0.083
AACTCACA	0.0203
CCCATATC	-0.181
ATTTCCAG	0.0581
CCCTTAAA	-0.00813
CGCAACAA	0.254
GCTTCTAA	-0.144
AAAATAAG	0.0307
ATTGCTTC	0.0452
CAGGTTGA	-0.155
CCTCCATC	-0.162
CACATAGG	0.138
AAAACAAC	0.141
AACCGGCA	-0.154
ATCGCGGC	-0.23
CCATGCAG	-0.146
AGGGCAAC	0.161
ACATTTCT	-0.0306
CACTCAAG	-0.0175

Sequence	PBM E-score
GCGCCTCA	-0.262
CGAACGCA	0.133
GCTTAGAA	0.00698
CTGTAGCA	0.041
AATCCATC	-0.21
CCTTAGTC	-0.0556
GAGGCGAC	-0.128
AGCAACTA	0.128
ATCTTAAT	0.111
CTGGTTAC	0.0615
TCGGCCCA	-0.257
ATTTGGGG	-0.112
CAAGCGAA	0.0464
GGCTCGGA	-0.324
CAAAGTTA	0.173
GGTAGGGA	-0.104
AAGGCCGG	-0.32
TCGTTACA	0.163
ATGACTTA	-0.0644
AACGTAGC	0.0725
GCTGCTCC	-0.178
GAGCGCGA	-0.154
CACGGAAG	0.118
ACATGGGC	0.277
CGCTGTAC	0.058

Sequence	PBM E-score
TCCGCTAA	-0.229
ACCCTTCT	-0.0754
CGCCGTCA	-0.238
TTACACAA	0.42
CTGGATTA	0.0668
TCGCTGCA	-0.132
CGCGCGCG	-0.00306
ATACTCGA	-0.0507
CTGTAGAC	0.0199
AAGACCGC	-0.139
CATCATCG	-0.185
CCACCTAG	-0.085
ACCAACTA	-0.055
TCCGGAGA	-0.297
AGCGTGAA	-0.0361
AGGTCCTC	-0.156
TAGGCAGA	0.136
GCTGGGCA	-0.131
GAGTGATC	-0.141
ATTTACGA	0.189
ATCTGACC	-0.149
TATTTTAA	0.159
